The record followed here is the RNAGym collection of RNA variant scans (doi:10.7554/elife.90254).

Read counts are not given, so values of variants with three or more changes are uncertain.

The labels stand for the following.
B1: LINE1-mini (parent)
chain: GGCAGAGCUCAACACAGCGUGGCAAAGUGGCUGUGGCUAGACUGCC

The data set covers variants of B1. The data set is described as follows: self-cleavage, relative activity (ratio to wild type); higher = more cleavage; in vitro, sequencing; the parent is a self-cleaving ribozyme.
For the variant GGCAGAGCUCAACACAGCAAGGCAAAGUUGCUGUGGUUAGACUGCC, the self-cleavage was 0.03.

As to GGCAGAGCUCAACACAGCAUGGCAAAGUGGCCGUGGCUAGGUUGCC, the self-cleavage was 0.01.

GGCAGAGCUCAACACAGCAAGGCAAAGUGGCUGUGGCUAGAAUGCC: the self-cleavage was found to be 0.04.

In the case of GGCAGAGCUCAACACAGCAUGGCAAAGUGGCUGUGUCUAGACUGGC, the self-cleavage came out at 0.18.

On to GGCAGAGCUCAACACAGCAACGCAAAGUGGUUGUGGCUAGACUGCC, for which the self-cleavage was 0.14.

As for GGCAGAGCUCAACACAGCACGGCAAAGUGGUUGUGGCUAGACUGCA, the self-cleavage stood at 0.17.

Regarding GGCAGAGCUCAACACAGCAUGGCAAAGUGGCUGUGGCGAGACUACC, the self-cleavage amounted to 0.

Take GGCAGAGCUCAACACAGCCUGGCACAGUGGCUGUGGCUACACUGCC: the self-cleavage was determined as 0.04.

GGCAGAGCUCAACACAGCAUGGCAAAGUGGCUGUGGCUAGACUACG: the self-cleavage stood at 0.1.

Regarding GGCAGAGCUCAACACAGCCUGGGAAAUUGGCUGAGGCUAGACUGCC, the self-cleavage stood at 0.34.

As to GGCAGAGCUCAACACAGCCUGGCAAUGGGGCUGUGGCUAGACUGCC, the self-cleavage amounted to 0.52.

On to GGCAGAGCUCAACACAGCCUGGCAAUGUGCCUGGGGCUAGACUGCC, for which the self-cleavage is 0.04.

GGCAGAGCUCAACACAGCAAGGAAAAGGGGCUGUGGUUAGACUGUC: the self-cleavage stood at 0.1.

Consider GGCAGAGCUCAACACAGCCUGGCAAAGUGGCUGUGGCUGGAUUGCC, for which the self-cleavage was determined as 0.06.

With GGCAGAGCUCAACACAGCAUGGCAAAGCUGCUGUGGCUAGACUGCC, the self-cleavage was 0.64.

With GGCAGAGCUCAACACAGCCUGGCAUAGUGGUUGUGGCUAGUCGGCU, the self-cleavage came to 0.05.

On to GGCAGAGCUCAACACAGCAGCGCAAAGUGGCUGUGGCUAUACUGCC, for which the self-cleavage amounted to 0.03.

For the variant GGCAGAGCUCAACACAGCCUGGCAGAGUGGCUGAGGAUAGACUGCC, the self-cleavage came out at 0.08.

In the case of GGCAGAGCUCAACACAGCCUGGGCAAGUGGCUGUGGCUAGACUGCC, the self-cleavage came out at 0.78.

Take GGCAGAGCUCAACACAGCAUGGCAAAGUGGCUGUAGCUCGACUGUC: the self-cleavage worked out at 0.06.

With GGCAGAGCUCAACACAGCCUGGCAAAGUGGCUGUGGCUAGUCUGCU, the self-cleavage came out at 0.47.

For GGCAGAGCUCAACACAGCCUGGCAAUGUAGCUCUGGCUAUACUGCC, the self-cleavage stood at 0.19.

For GGCAGAGCUCAACACAGCCUGGGAAACUGGCUGUGCCUAGACUGCC, the self-cleavage worked out at 0.04.

For GGCAGAGCUCAACACAGCAUGGCAAAGUGGCUGAUGCUAGACUACC, the self-cleavage amounted to 0.02.

On to GGCAGAGCUCAACACAGCCUGGCACAGUAGCCGUGGUUAGACUCCC, for which the self-cleavage was 0.04.

For GGCAGAGCUCAACACAGCAUGGCAAAGUGGCUGUGGCUAGACGACC, the self-cleavage amounted to 0.

As to GGCAGAGCUCAACACAGCAGGGCAAAGUGGAUGUGGCUAGACUGCC, the self-cleavage turned out to be 0.12.

Take GGCAGAGCUCAACACAGCAGGGCAAAGUUGCUGUGGCUAGACUGCC: the self-cleavage came to 0.5.

Regarding GGCAGAGCUCAACACAGCCUGGCCAAGUGGCUGUUGCUGGACUGCC, the self-cleavage came out at 0.03.

Turning to GGCAGAGCUCAACACAGCAUGGCAAAGUGGCUUUGGCUAGACUGCU, the self-cleavage came to 0.1.

For the variant GGCAGAGCUCAACACAGCAAGGCAAAGUGGCUGUGGCUAGACAGCC, the self-cleavage was found to be 0.06.

With GGCAGAGCUCAACACAGCAUGGCAAAGUGGCUUUGGUUAGACUGCC, the self-cleavage worked out at 0.08.

As for GGCAGAGCUCAACACAGCCUGGCAACGUAGUUGGGGCUAGACUGCG, the self-cleavage was 0.03.

For the variant GGCAGAGCUCAACACAGCAUGGCAAAGUGGCGGUGGCUAGACUGGC, the self-cleavage worked out at 0.06.

As to GGCAGAGCUCAACACAGCCUGGCAGAGUGGCCGUGGCUAGACUUCC, the self-cleavage worked out at 0.01.

Turning to GGCAGAGCUCAACACAGCCUGGCAAGGUGGCUGUAGCUAGACUGCC, the self-cleavage came to 0.08.

For the variant GGCAGAGCUCAACACAGCAAGCCAAAGUGGCUGUGGCUAGACUGCC, the self-cleavage stood at 1.08.

Turning to GGCAGAGCUCAACACAGCCUGGCCAAGUGGCUGUGACUACACUGCC, the self-cleavage is 0.07.

Turning to GGCAGAGCUCAACACAGCAAGGCGAAGCGGCUGUGGCUAAACUGCC, the self-cleavage stood at 0.07.

With GGCAGAGCUCAACACAGCCUGGCAACGUGGCUGUGGCAAGACUGCU, the self-cleavage worked out at 0.06.

Turning to GGCAGAGCUCAACACAGCAUGGCAAAGGGGCUGUAGCUAGACUGCC, the self-cleavage is 0.22.

Take GGCAGAGCUCAACACAGCCUGGCAAAGUGGCUGUGGCUAGCCUGUC: the self-cleavage amounted to 0.05.

With GGCAGAGCUCAACACAGCAUGGCAAAGUGGCUGUGGCUAAACGGCC, the self-cleavage came out at 0.02.

Regarding GGCAGAGCUCAACACAGCAAGGCAAAGUGGCUGUGGCUAGUCAGCC, the self-cleavage amounted to 0.12.

As for GGCAGAGCUCAACACAGCAUGGCAAAGUGGCUGUGGCUAGACUUCA, the self-cleavage is 0.11.

With GGCAGAGCUCAACACAGCAUGGCAAAGUGGCUGUGGCUAUACUUCC, the self-cleavage came to 0.2.

As for GGCAGAGCUCAACACAGCAUGGCAAAGUGGCUGUGACGCGACUGCC, the self-cleavage is 0.78.

Turning to GGCAGAGCUCAACACAGCAUGGCAAAGUGGCUGUGUCUUGAAUGCC, the self-cleavage was 0.01.

Regarding GGCAGAGCUCAACACAGCCUGGCUAAGUGGCUGUGGCUAGACAUAA, the self-cleavage was 0.1.

For GGCAGAGCUCAACACAGCAGGGCAAAGUGGAUGUGGCUAGACUUCC, the self-cleavage was found to be 0.02.

For GGCAGAGCUCAACACAGCCUGGCUAAGUGGCCGUGGCUAGACUGCC, the self-cleavage amounted to 0.08.

In the case of GGCAGAGCUCAACACAGCAUGGCAAAGUGGCUGAGGCAAGACUGCC, the self-cleavage was 0.23.

For GGCAGAGCUCAACACAGCCUGGCAAUGUGGCUGUGGCUAGACCGCC, the self-cleavage amounted to 0.03.

Regarding GGCAGAGCUCAACACAGCAUGGCAAAGUGGCUGGGGAUAGACUGCC, the self-cleavage is 0.05.

On to GGCAGAGCUCAACACAGCCUGGCUACGUGGCUGUAGCUAGACUGCC, for which the self-cleavage is 0.02.

With GGCAGAGCUCAACACAGCCUGGCAAUGUCGGUGUGGCUAGACUGCC, the self-cleavage stood at 0.47.
